Among all 45,000 compounds or so, about 65 (0.1%) were called active. The call rests on the fitted dose curve; in most records, active means well fitted activation curve with a large enough effect; inconclusive means small, poorly fitted or top-dose-only effect; inactive means no such curve, though single readings can be large or run the other way. This is one part of the list.

The target in the assay is Galactocerebrosidase (Homo sapiens) (UniProt P54803). Briefly: A Novel Cell-Based Assay to Identify Small Molecules for B -Galactocerebrosidase. Further: 0% is about no effect; nearly all actives have a fitted effect of over 65% in size. Conditions: 145M-Twi-hGALC-G270D cells (Twitcher mouse brain line with human GALC G270D), HMU-beta-Gal fluorescence, 48 h; series mostly up to 57.5 µM; activation: at the top concentration. The procedure, abridged: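 Live 145M-Twi cells (Twitcher mouse brain-derived, GALC-null) stably expressing human GALC-G270D, with a wild-type GALC line, were compound-treated. Residual GALC activity was then read as fluorescence from 0.1 mM final HMU-β-gal at pH 5.2; higher signal means activation.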
Sequence of UniProt P54803 (P54803 whole entry, looked up): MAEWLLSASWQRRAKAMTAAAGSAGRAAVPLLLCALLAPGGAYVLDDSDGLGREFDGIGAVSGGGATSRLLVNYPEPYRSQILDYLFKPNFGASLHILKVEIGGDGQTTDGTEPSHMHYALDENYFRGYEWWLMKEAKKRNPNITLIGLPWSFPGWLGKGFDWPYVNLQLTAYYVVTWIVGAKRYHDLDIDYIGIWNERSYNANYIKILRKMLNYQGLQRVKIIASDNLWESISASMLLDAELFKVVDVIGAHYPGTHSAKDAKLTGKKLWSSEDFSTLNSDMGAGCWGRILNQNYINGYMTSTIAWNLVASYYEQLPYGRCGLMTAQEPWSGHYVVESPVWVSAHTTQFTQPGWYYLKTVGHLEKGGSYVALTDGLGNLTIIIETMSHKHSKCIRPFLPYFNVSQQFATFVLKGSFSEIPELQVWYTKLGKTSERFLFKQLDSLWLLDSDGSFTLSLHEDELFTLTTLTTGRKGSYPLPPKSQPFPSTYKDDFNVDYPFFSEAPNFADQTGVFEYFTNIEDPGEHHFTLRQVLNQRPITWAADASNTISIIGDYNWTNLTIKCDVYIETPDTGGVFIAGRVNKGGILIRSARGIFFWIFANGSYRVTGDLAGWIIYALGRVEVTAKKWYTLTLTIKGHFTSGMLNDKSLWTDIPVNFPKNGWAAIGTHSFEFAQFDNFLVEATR
For `Cc1cccc(N2CCN(S(=O)(=O)c3c(C)nc4scc(C)n4c3=O)CC2)c1C`, the “activation” value was inactive: -36.4%.
The same measure for `CCn1cc2nc(SCc3cc(C)ccc3C)n(CCc3ccccc3)c(=O)c2n1`: inactive: -14.1%.
Take `CCCCn1c(=O)c2oc3ccccc3c2n(CC(=O)Nc2ccc(CC)cc2)c1=O`: the “activation” value was inactive: -6.13%.
The same measure for `Cc1ccc(NC(=O)CC2Oc3ccccc3NC2=O)cc1C` (stereo not given): inactive: -13.4%.
To `Cc1c(C(=O)NCc2cccc(Cl)c2)sc2nc3n(c(=O)c12)CCCC3` belongs inactive: -18.1%; to `COc1ccc(CCNC(=O)CN2C(=O)COc3ccc(S(=O)(=O)N4CCCC4)cc32)c(OC)c1`, inactive: -27.5%.
Regarding `COc1ccc(-c2cnnn2-c2ccc(NC(=O)c3ccccc3OC)cc2)cc1`, the “activation” value is inactive: -10.3%.
For the compound `Nc1nn(-c2ccccc2)nc1C(=O)OCc1ccc(Cl)cc1`, the “activation” value is inactive: -1.82%.
The same measure for `COc1ccc(-c2nc3sc(CCNC(=O)C(=O)Nc4cccc(NC(C)=O)c4)c(C)n3n2)cc1`: inactive: -17%.
For the compound `COc1c(C)cccc1C(=O)Nc1ccc(-c2nc3ccccc3s2)c(Cl)c1`, the “activation” value was inactive: -16.6%.
With `Cc1c(C(=O)NCc2cccc(Br)c2)oc2ccc3c(c12)C(=O)CC(C)(C)O3`, the “activation” value was inactive: 0.148%.
In the case of `Cn1c(=O)n(Cc2c(F)cccc2Cl)c(=O)c2c1nc1n2CCN1c1ccc(F)cc1`, the “activation” value is inactive: -0.26%.
The same measure for `CCN(CC)CCCNC(=O)c1ccc(Cn2c(SCc3ccccc3)nc3cccnc32)cc1`: inactive: -16.2%; for `COCCNC(=O)c1nn(-c2ccc(C)cc2)c(=O)c2c1c1ccccc1n2C`: inactive: -4.82%; for `Cc1ccc(CCNC(=O)C2CCCN(c3nnc(C)c4c(C)n(-c5ccccc5)nc34)C2)cc1` (stereo not given): inactive: -8.47%.
Consider `COc1ccc(-c2cn3nc(N4CCCC(C(=O)NCc5ccc(Cl)cc5)C4)sc3n2)cc1` (stereo not given), for which the “activation” value was inactive: -14.5%.
For the compound `CC1=C(C(=O)NCc2ccccc2F)C2(CCCCC2)OC1=O`, the “activation” value was inactive: -0.167%.
The same measure for `CC1=C(c2ccc(F)cc2)S(=O)(=O)N=C1N1CCC(C(=O)NCCc2cccc(C)c2)CC1`: inactive: -19.8%.
Turning to `Cc1ccc(CSc2ncc(Cl)c(C(=O)Nc3nnc(C)s3)n2)cc1`, the “activation” value is inactive: -7.42%.
Consider `COc1cccc(-c2nc(CS(=O)(=O)CC(=O)NCc3cccc(Cl)c3)c(C)o2)c1`, for which the “activation” value was inactive: -16.2%.
In the case of `O=C(Nc1ccccc1Cl)N1CCC(CN2CCCC2)CC1`, the “activation” value is inactive: -6.85%.
As for `Cc1ccc(NC(=O)CN2C(=O)c3cccnc3Oc3ccc(Cl)cc32)cc1`, the “activation” value was inactive: 3.58%.
`O=C(NCc1ccc2c(c1)CCN2C(=O)c1ccccc1)Nc1cccc(C(F)(F)F)c1`: the “activation” value is inactive: -18.8%.
On to `Cc1ccccc1OCCSc1nc2ccc(NC(=O)c3cccc(F)c3)cc2s1`, for which the “activation” value is inactive: -32.5%.
With `COc1ccc(Cn2ccnc2SCC(=O)Nc2nc3ccccc3s2)cc1`, the “activation” value is inactive: -6.92%.
The same measure for `CN(C)CCCNc1cc(N2CCN(C3CCCCC3)CC2)c2noc3c2c1C(=O)c1ccccc1-3`: inactive: -17.7%; for `COc1cc2ncc3c(-c4ccc(C)cc4)nn(-c4ccc(F)cc4F)c3c2cc1OC`: inactive: -7.04%.
The same measure for `COc1ccc(NC(=O)c2cc3c(s2)-c2c(C)cccc2OC3)cc1Cl`: inactive: -14.1%; for `CCOC(=O)c1c(C)n(-c2ccccc2)c2ccc(OC(=O)COc3ccc(Cl)cc3)cc12`: inactive: -16.8%.
Take `Cc1ccccc1-c1nc(CN2CCC(C(=O)NCc3ccc(F)cc3)CC2)c(C)o1`: the “activation” value was inactive: 0.0448%.
On to `CC(=O)c1ccc(NC(=O)c2ccc3c(c2)N(Cc2cccc(Cl)c2)C(=O)c2ccccc2S3=O)cc1` (stereo not given), for which the “activation” value is inactive: -2.13%.
Regarding `Cc1c(C(=O)NCc2ccccc2Cl)sc2ncnc(N(C)C3CCCCC3)c12`, the “activation” value is inactive: -5.05%.
Consider `Cc1ccc(C(C)C)c(O)c1`, for which the “activation” value was inactive: -15.3%.
Regarding `Cc1cc(Nc2ccccc2C)n2nc(Cc3ccc(Cl)cc3)nc2n1`, the “activation” value was inactive: -10.9%.
To `Cc1ccn2c(Nc3ccc4c(c3)OCCO4)c(-c3ccc(C)o3)nc2c1` belongs inactive: -14%.
With `Cn1c(=O)oc2cc(S(=O)(=O)CCC(=O)N3CCN(c4cccc(Cl)c4)CC3)ccc21`, the “activation” value is inactive: -25.5%.
Regarding `O=C(NCc1ccccc1)c1ccc(NC(=O)N2CC3CCCN3c3ccccc32)cc1` (stereo not given), the “activation” value was inactive: -9.43%.
On to `CCOc1cc(C(=O)Nc2ccc(-c3cn4cccnc4n3)cc2)cc(OCC)c1OCC`, for which the “activation” value was inactive: -12.5%.
To `CCNC(=O)C1CCN(S(=O)(=O)c2ccc3c(c2)CCCN3C(C)=O)CC1` belongs inactive: -18%; to `CCCN(CCC)c1ccc(C2N=C(N)Nc3nc4ccccc4n32)cc1` (stereo not given), inactive: -11.5%.
Regarding `Cc1cccc(NC(=O)C2CCCN2S(=O)(=O)c2ccc3nc(-c4ccccc4)[nH]c3c2)c1` (stereo not given), the “activation” value is inactive: -10.3%.
Take `Cc1nc2ccccn2c(=O)c1NC(=O)c1ccc(F)c(F)c1`: the “activation” value was inactive: -9.52%.
In the case of `Cc1ccc2c(c1)c1c(c(=O)n(-c3ccccc3)c(=O)n1CC(=O)NCC1CCCO1)n2C` (stereo not given), the “activation” value is inactive: 0.103%.
Turning to `Cc1ccc(S(=O)(=O)c2nnn3c2nc(NCc2ccc4c(c2)OCO4)c2sccc23)cc1C`, the “activation” value was inactive: -1.36%.
Consider `CCCCNC(=O)CCCCCn1c(=O)[nH]c2ccccc2c1=O`, for which the “activation” value is inactive: -25%.
Turning to `Cc1ccc(C)c(N2CCN(S(=O)(=O)c3cc(C(=O)Nc4ccc(Oc5ccccc5)cc4)ccc3F)CC2)c1`, the “activation” value is inactive: -42%.
With `Cc1cccc(N2CCN(Cc3nnc(-c4cccc(Br)c4)o3)CC2)c1C`, the “activation” value is inactive: -20.7%.
Consider `Cc1ccc(Cl)cc1NC(=O)CN1C(=O)c2ccccc2Sc2ncccc21`, for which the “activation” value was inactive: -10.9%.
As for `Cc1ccc(CNS(=O)(=O)c2c(C)nc3sc(C)cn3c2=O)cc1`, the “activation” value was inactive: -11.2%.
Consider `CCc1ccc(-c2nc(CS(=O)CC(=O)NCc3ccc(F)cc3)c(C)o2)cc1` (stereo not given), for which the “activation” value was inactive: -0.613%.

For the origin of these results see PubChem BioAssay AID1159614 (National Center for Advancing Translational Sciences (NCATS), 2016).
